Results taken from PubChem BioAssay AID1745853 (National Center for Advancing Translational Sciences (NCATS), 2022).
This is one part of the list. These are further read-outs of the screen, such as a control signal, another cell line or another target. No call is given for them.

Key:
Test in all cases: Primary Screen for Target Class Profiling of Small Molecule Inhibitors of Methyltransferases
[1] = target: Glycine N-methyltransferase (Homo sapiens) (UniProt Q14749); conditions: purified enzyme, MTase-Glo SAH luminescence; measured here: GNMT inhibition; at 40 µM; stronger effect = lower value
Procedure, shortened: (§1)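 Each enzyme was reacted with SAM and its substrate, with compounds tested once at 40 uM; SAH formed was read by MTase-Glo luminescence.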

[2] = target: Guanidinoacetate N-methyltransferase (Homo sapiens) (UniProt Q14353); conditions: purified enzyme, MTase-Glo SAH luminescence; measured here: GAMT inhibition; at 40 µM; stronger effect = lower value
Procedure, shortened: as §1

[3] = target: Histamine N-methyltransferase (Homo sapiens) (UniProt P50135); conditions: purified enzyme, MTase-Glo SAH luminescence; measured here: HNMT inhibition; at 40 µM; stronger effect = lower value
Procedure, shortened: as §1

[4] = target: Nicotinamide N-methyltransferase (Homo sapiens) (UniProt P40261); conditions: purified enzyme, MTase-Glo SAH luminescence; measured here: NNMT inhibition; at 40 µM; stronger effect = lower value
Procedure, shortened: as §1

[5] = target: Phenylethanolamine N-methyltransferase (Homo sapiens) (UniProt P11086); conditions: purified enzyme, MTase-Glo SAH luminescence; measured here: PNMT inhibition; at 40 µM; stronger effect = lower value
Procedure, shortened: as §1
On the % scale 0 is the no-effect control and ±100 the full control effect.

Compound | activity change, negative = inhibition [1] [%] | activity change, negative = inhibition [2] [%] | activity change, negative = inhibition [3] [%] | activity change, negative = inhibition [4] [%] | activity change, negative = inhibition [5] [%]
COc1ccc(C(=O)N2CCCC(c3nc(-c4ccccc4)no3)CCNC(=O)CC2)cn1 (stereo not given) | -3.96 | -2.92 | 1.21 | -13.8 | -2.77
CCCNC(=O)C(CC)n1ccc2cc(S(=O)(=O)N3CCCCC3)ccc21 (stereo not given) | 3.37 | 5.29 | -2.55 | 5.6 | 2.06
O[C@@H]1C[C@@H](c2nnc3n2CCN(C2CCCCC2)C3)N(Cc2cccnc2)C1 | -1.56 | 0.44 | 2.43 | -5.1 | -2.04
CN(C)c1ccc(C(=O)NC[C@H]2O[C@@H](CO)[C@@H](O)[C@H]2N(C)Cc2ccccc2)cc1 | -1.9 | -2.9 | -0.567 | -5.89 | -0.57
O=C(Cn1nc2n(CCc3ccccc3)c(=O)c3ccccc3n2c1=O)NCc1ccc(Cl)cc1 | 3.52 | 3.04 | 8.18 | 0.416 | 1.86
COc1cccc(CSc2nnc3n(Cc4ccc(F)cc4)c(=O)c4ccccc4n23)c1 | 2.59 | 0 | 5.79 | -5.17 | -0.264
CC(=O)Nc1c2n(c3ccccc13)CC(C)(C(=O)NCCC(C)C)N(Cc1ccccc1F)C2=O (stereo not given) | 1.69 | 6.72 | 0.081 | 2.43 | 1.49
CCCN1C(=O)c2cc(C(=O)NCc3ccc4c(c3)OCO4)nn2CC1(C)C(=O)NC1CCCC1 (stereo not given) | 1.73 | 2.24 | 2.2 | 1.44 | 1.13
CC(C)CCNC(=O)C1(C)Cn2nc(C(C)(C)C)cc2C(=O)N1Cc1ccccc1Cl (stereo not given) | -2.02 | 3.36 | -2.53 | -4.72 | -4.08
CCOc1ccc(C2Cn3nnc(-c4nc(-c5ccccc5OC)no4)c3CO2)cc1 (stereo not given) | -3.75 | -5.19 | -2.7 | -7.05 | -0.261
COc1cccc(CNC(=O)c2c(C)noc2-c2ccccc2OC)c1 | -2.31 | -4.08 | -0.273 | -4.53 | 0.239
CC(O)CN1CC2(CCC1=O)CCN(C(=O)c1ccnn1C)CC2 (stereo not given) | -2.79 | -3.72 | 0.622 | -4.93 | -19.9
COc1ccc(CCNC(=O)c2ccc3c(=O)[nH]c4c(C(=O)NC5CCCC5)sc(=S)n4c3c2)cc1OC | -48.5 | 3.45 | -0.358 | -38.5 | -14.8
Cc1ncsc1C(=O)N1CCCC(C)(Cc2ccc3c(c2)OCO3)C1 (stereo not given) | -3.56 | -1.23 | 0.614 | -12.1 | 12.3
COc1ccc(CN2CCOc3nc(-c4cccc(C(F)(F)F)c4)ncc3C2=O)cc1 | -5.86 | -6.42 | -2.46 | -3.15 | -9.63
O=C1CN(Cc2ccc(Cl)cc2)S(=O)(=O)c2ccccc2N1Cc1cccc(F)c1 | 12.9 | 0 | 9.29 | 8.43 | 7.28
CCc1c(C(=O)N2CCc3c(c(C(=O)O)nn3CC3CC3)C2)csc1C | -11 | -1.75 | -1.4 | -2.89 | 0.332
C[C@@H]1CC[C@]2(C(=O)OC3OC(CO)C(O)C(O)C3O)CC[C@]3(C)C(=CCC4[C@@]5(C)CC[C@H](O)[C@](C)(C(=O)O)C5CC[C@]43C)C2[C@]1(C)O (stereo not given in full) | 4.66 | 1.6 | 9.23 | -10.3 | 0.65
COCCOC1CCN(C(=O)Nc2cccc(C)c2)CC1 | -3.93 | -5.18 | -0.892 | -5.79 | -2.98
C=C1CCN([C@H](C)[C@](O)(Cn2cncn2)c2ccc(F)cc2F)CC1 | -0.205 | 4.75 | 8.22 | -13.3 | 1.46

Compound | activity change, negative = inhibition [1] [%] | activity change, negative = inhibition [2] [%] | activity change, negative = inhibition [3] [%] | activity change, negative = inhibition [4] [%] | activity change, negative = inhibition [5] [%]
CCOC(=O)c1cc2n(n1)CC(C)(C(=O)NC1CCCC1)N(c1ccc(CC)cc1)C2=O (stereo not given) | -1.69 | 0.907 | -1.39 | -1.24 | -1.41
CCc1cc2c(cc3n2CC(C(=O)NC2CCCCC2)(c2ccccc2)N(Cc2ccc(Cl)cc2)C3=O)s1 (stereo not given) | -0.769 | 2.59 | 5.05 | 0.873 | -2
Cc1cc(C)cc(N2C(=O)c3cc4sccc4n3CC2(C)C(=O)NC2CCC(C)CC2)c1 (stereo not given) | -6.56 | 4.06 | -6.28 | 0.135 | -6.13
CCCC(=O)C1CCN(c2ncnc3c2CN(C(=O)c2ccc(-c4ccccc4)cc2)CC3)CC1 | -16.9 | 6 | 6.05 | -39.5 | 0.256
COCCn1nc2n(c1=O)CCC1(CC2)CCN(C(=O)CC(C)(C)C)CC1 | -2.13 | -0.181 | -1.9 | -0.704 | -1.17
CCN1C(=O)c2c(C(=O)NCCc3ccco3)ncn2CC1(C)C(=O)NC1CCCC1 (stereo not given) | -5.86 | 4.58 | 3.49 | 5.13 | 3.98
CCCn1c(=O)c2ccc(Cl)cc2n2c(=O)n(CC(=O)Nc3ccc(Cl)cc3)nc12 | -0.88 | 1.32 | -0.635 | -7.26 | -2.34
O=C(O)c1cc(O)c2cccc(O)c2c1O[C@@H]1O[C@H](CO)[C@@H](O)[C@H](O)[C@H]1O | -31 | -14 | 4.09 | -24.3 | -33.4
Cc1ccc(Cl)cc1NC(=O)Cn1nc2n(Cc3ccc(F)cc3)c(=O)c3ccccc3n2c1=O | 1.59 | 0 | 7.86 | -2.93 | 0.722
COc1ccc(CNC(=O)N2CCCCC2c2nc(-c3cnccn3)n[nH]2)cc1 (stereo not given) | -0.865 | -0.591 | -0.723 | -1.54 | -1.69
COc1ccc(C(C)NC(=O)c2c(C)sc3ccn(C)c(=O)c23)cc1 (stereo not given) | -3.82 | -0.663 | 0.685 | 1.98 | 12.8
N#CC(CCCN1CCN(/N=C/c2cccnc2)CC1)(c1ccccc1)c1ccccc1 | 6.73 | -1.42 | 4.54 | -29.1 | -9.74
Cc1ccc(Cn2c(=O)c3ccccc3n3c(=O)n(CC(=O)c4ccc(C)cc4C)nc23)cc1 | 4.58 | 1.18 | 6.44 | 4.53 | 2.51
C[C@]12C=CC(=O)C=C1CC[C@H]1[C@@H]3C[C@@H](O)[C@](O)(C(=O)CO)[C@@]3(C)C[C@H](O)[C@@]12F | -3.56 | 6.18 | -1.35 | -2.48 | 7.69
Cc1ccc(C)c(N2CCN(CCN3C(=O)c4ccc(-c5ccco5)n4CC3(C)C(=O)NC3CCCC3)CC2)c1 (stereo not given) | -5.09 | 3.78 | -2.2 | -2.52 | -3.51
O=C1CC2CCCC(C1)N2C(=O)c1ccncc1 | -2.54 | -5.19 | -1.18 | -6.42 | -2.76
N#Cc1ccc(COC[C@H]2O[C@@H](n3c(NCc4ccc(Cl)c(Cl)c4)nc4c(N)ncnc43)[C@H](O)[C@@H]2O)cc1 | -18.2 | -1.44 | -43.3 | -90.7 | -72.9
C=Cc1ccc(Cn2nc3n(Cc4ccc(F)cc4)c(=O)c4ccccc4n3c2=O)cc1 | 2.99 | 4.31 | 6.4 | -5.63 | 1.36
CNC(=O)[C@@H]1C[C@@H](O)CN1C1CCN(C(=O)C2(c3ccccc3)CC2)CC1 | -1.69 | 0.047 | 0.907 | -0.485 | -11.4
CO[C@H]1C(=O)N(C(C)C)[C@H]1C1CCN(C(=O)C(C)C)CC1 | -6.62 | -3.99 | -0.735 | -3.82 | -0.375

Compound | activity change, negative = inhibition [1] [%] | activity change, negative = inhibition [2] [%] | activity change, negative = inhibition [3] [%] | activity change, negative = inhibition [4] [%] | activity change, negative = inhibition [5] [%]
CCC(C)N1C(=O)c2cc3occc3n2CC1(C)C(=O)NC1CCCCCC1 (stereo not given) | -2.22 | 2.32 | -2.15 | 0.63 | -7.01
O=C(c1nc2ccccc2[nH]1)N1CCNc2cnc(Nc3ccc(-n4ccnc4)cc3)nc2C1 | -38 | -25.8 | -40 | -27.3 | -17.5
CC1(C(=O)NC2CCCCC2)Cn2c(ccc2-c2ccco2)C(=O)N1C1CCCc2ccccc21 (stereo not given) | -7.9 | 1 | -3.79 | -13.4 | -7.07
C=C1CCC2C(C)(C)CC(=O)CC2(C)C1CCC(C)CCOC(C)=O (stereo not given) | 0 | 9.12 | 9.53 | -9.44 | -0.303
N#Cc1ccc(S(=O)(=O)N2CCC(C3CCNC3)CC2)cc1 (stereo not given) | -3.67 | -3.76 | -4.58 | -11.3 | -10.3
CC1CCN(S(=O)(=O)c2ccc3c(ccn3CCC(=O)N3CC(C)CC(C)C3)c2)CC1 (stereo not given) | -0.442 | 3.16 | 2.88 | -12.8 | 0.866
CC(C)NC(=O)Cn1ccc2cc(S(=O)(=O)N3CCCCC3)ccc21 | 7.68 | 0.796 | 8.49 | 5.86 | 4.26
Cc1ccc2[nH]c(CN3CCC(c4cccc(C#N)c4)CC3)cc(=O)c2c1 | -8.94 | 0.248 | -6 | -26.4 | -32.4
COc1ccc(OC)c(S(=O)(=O)N2CCCC(Cc3ncc(C)n3CC3CC3)C2)c1 (stereo not given) | -3.88 | -4.78 | 6.12 | -9.53 | -0.355
CC(O)C(O)/C=C/C=C/C(=O)O[C@@H]1C=C2COC(=O)[C@]2(O)[C@@]2(C)CCCC(C)(C)C12 (stereo not given in full) | -0.122 | -5.07 | 2.25 | -14.8 | 0.187
Cn1c(=O)c2ccc(C(=O)NC3CCCCC3)cc2n2c(SCc3ccccc3)nnc12 | 0.824 | 3.46 | 5.53 | 0.097 | 3.8
Cc1ccccc1NC(=O)N1Cc2c(sc3c2CCCC3)-n2cccc2C1c1ccc(F)cc1 (stereo not given) | 1.99 | 0.248 | 4.04 | -5.5 | 1.3
O=C(Nc1ccccc1)N1CCCC(C(=O)N2CCC(N3CCCC3=O)CC2)C1 (stereo not given) | 0.356 | -1.84 | -0.163 | -0.148 | 0.909
O=C(O)CCc1cc2ccoc2cc1O[C@@H]1O[C@H](CO)[C@@H](O)[C@H](O)[C@H]1O | 7.31 | 7.75 | 9.09 | -5.01 | 5.31
COc1ccc(NC(=O)c2ccc(C(=N)N(C)C)cc2)c(C(=O)Nc2ccc(Cl)cn2)c1 | -3.26 | 3.74 | -22.8 | -9.81 | -5.03
O=C(C[C@H]1NC(=O)c2ccccc2NC1=O)Nc1nc(-c2ccncc2)cs1 | -10.2 | -7.03 | -6.16 | -35.6 | -8.42
CC[C@H](C)NC(=O)c1sc(=S)n2c1[nH]c(=O)c1cc(Cl)ccc12 | -81.8 | -63.5 | -80.2 | -78.1 | -87
CCN(CCN(C)C)C(=O)CNCc1cc(C(N)=O)ccn1 | 5.99 | 7.97 | 9.45 | -1.78 | 9.04
O=C(Cn1ccc2cc(S(=O)(=O)N3CCCCC3)ccc21)NCc1cccnc1 | 4.57 | 0.646 | 7.2 | 9.97 | 5.6
